{"source": "PubChem BioAssay AID504332", "about": "(National Center for Advancing Translational Sciences (NCATS), 2011)", "note": "Out of some 350,000 compounds screened, about 31,000 (8.9%) were called active. Inconclusive means that the source gave no clear call. Such entries were picked first, then a sample of the others. Calls come from the whole dose curve; as a rule, active = well fitted inhibition curve with a large enough effect; inconclusive = small, poorly fitted or top-dose-only effect; inactive = no such curve, though single readings can be large or run the other way. Potencies of inconclusive entries are doubtful fits and often do not repeat. % is set by controls: 0 for no effect and ±100 for the full control effect; potency is the fitted concentration of half-maximal effect; tags give direction and shape of the fitted curve."}
{"molecular_target": "Histone-lysine N-methyltransferase EHMT2 (Homo sapiens) (UniProt Q96KQ7)", "sequence (Q96KQ7 whole entry, looked up)": "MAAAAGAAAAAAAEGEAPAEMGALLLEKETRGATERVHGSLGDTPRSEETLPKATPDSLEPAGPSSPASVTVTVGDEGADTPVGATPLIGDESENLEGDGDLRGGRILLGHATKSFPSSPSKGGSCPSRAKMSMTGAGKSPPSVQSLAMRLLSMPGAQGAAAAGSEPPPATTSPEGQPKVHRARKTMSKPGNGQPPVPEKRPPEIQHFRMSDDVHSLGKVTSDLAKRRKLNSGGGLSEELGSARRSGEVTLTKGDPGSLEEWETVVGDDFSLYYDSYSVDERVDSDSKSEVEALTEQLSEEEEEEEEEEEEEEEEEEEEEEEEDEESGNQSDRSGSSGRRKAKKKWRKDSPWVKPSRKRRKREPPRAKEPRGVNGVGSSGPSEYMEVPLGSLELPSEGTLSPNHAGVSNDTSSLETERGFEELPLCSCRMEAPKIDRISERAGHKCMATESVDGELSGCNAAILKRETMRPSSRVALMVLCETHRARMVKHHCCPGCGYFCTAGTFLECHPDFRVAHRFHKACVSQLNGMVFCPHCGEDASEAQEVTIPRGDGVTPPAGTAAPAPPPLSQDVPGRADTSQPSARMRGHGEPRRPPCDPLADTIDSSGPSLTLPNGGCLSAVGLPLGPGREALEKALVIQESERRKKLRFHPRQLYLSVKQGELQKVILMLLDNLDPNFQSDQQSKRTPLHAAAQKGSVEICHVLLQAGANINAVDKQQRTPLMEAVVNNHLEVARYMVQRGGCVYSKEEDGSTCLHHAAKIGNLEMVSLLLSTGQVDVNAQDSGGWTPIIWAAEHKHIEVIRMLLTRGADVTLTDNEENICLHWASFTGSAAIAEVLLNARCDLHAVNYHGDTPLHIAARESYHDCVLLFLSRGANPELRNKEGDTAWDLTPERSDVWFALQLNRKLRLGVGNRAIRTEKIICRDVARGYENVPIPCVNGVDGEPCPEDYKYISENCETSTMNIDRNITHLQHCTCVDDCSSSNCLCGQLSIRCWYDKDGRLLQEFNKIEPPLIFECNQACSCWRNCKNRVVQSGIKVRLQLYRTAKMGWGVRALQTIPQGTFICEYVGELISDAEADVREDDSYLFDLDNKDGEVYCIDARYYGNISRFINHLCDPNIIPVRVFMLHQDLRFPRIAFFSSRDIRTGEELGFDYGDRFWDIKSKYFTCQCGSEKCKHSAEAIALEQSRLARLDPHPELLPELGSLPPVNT", "experiment": "qHTS Assay for Inhibitors of Histone Lysine Methyltransferase G9a; note: nearly all actives have a fitted effect of over 75% in size", "conditions": "G9a H3K9 monomethylation, AlphaScreen, 2 h; activity, negative = inhibition: at 59 µM (top of the series) unless noted", "outline": "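Step 1: enzyme (final 20 nM) with compound, 15 min RT. Step 2: substrate peptide 500 nM and SAM 20 uM, 2 h RT. Step 3: anti-H3K9me1 antibody and AlphaScreen beads, 10 min, then plate read.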"}
{"smiles": "S=c1[nH]c(-c2ccccc2)cn1/N=C/c1ccc(Br)cc1", "Potency": "active: 12.6 µM"}
{"smiles": "COc1cccc(NC(=O)CC2NCCNC2=O)c1", "note": "(stereo not drawn)", "Potency": "inactive"}
{"smiles": "O=C(NCC(=O)N(Cc1ccco1)C(C(=O)NC1CCCCC1)c1cccnc1)c1cccs1", "note": "(stereo not drawn)", "Potency": "inconclusive: 7.08 µM [inhibitor, single point]"}
{"smiles": "O=C1/C(=C/c2ccccc2[N+](=O)[O-])COc2ccccc21", "Potency": "inconclusive: 28.2 µM [inhibitor, partial curve, poor fit]"}
{"smiles": "COc1ccccc1NC(=O)Cc1nnc(SCC(=O)NC2CCCC2)n1C", "Potency": "inconclusive: 6.31 µM [inhibitor, partial curve, poor fit]"}
{"smiles": "CCn1cc(C(=O)OCC(=O)Nc2cccc(C(C)=O)c2)c(=O)c2ccc(C)nc21", "Potency": "inactive"}
{"smiles": "COC(=O)C(C)(C)ONC(=O)Nc1ccccc1", "Potency": "inactive"}
{"smiles": "O=C(Nc1sc2c(c1C(=O)NCC1CCCO1)CCC2)c1cc(=O)c2ccccc2o1", "note": "(stereo not drawn)", "Potency": "inactive"}
{"smiles": "Cc1ccc(CN2CCN(C(=O)C3CCCO3)CC2)cc1", "note": "(stereo not drawn)", "Potency": "inconclusive: 70.8 µM [inhibitor, single point]"}
{"smiles": "CN1C(=O)C(O)(CC(=O)/C=C/C=C/c2ccccc2)c2ccccc21", "note": "(stereo not drawn)", "Potency": "inactive"}
{"smiles": "CN(C)CCC1Sc2ccccc2Oc2ccccc21", "note": "(stereo not drawn)", "Potency": "active: 10 µM"}
{"smiles": "COCCCNc1oc(-c2ccc(COc3ccc(Cl)cc3)o2)nc1C#N", "Potency": "active: 8.91 µM"}
{"smiles": "COc1cccc(NC(=O)CS(=O)(=O)c2cn(CC(=O)N3CCOCC3)c3ccccc23)c1", "Potency": "inconclusive: 1.41 µM [inhibitor, full curve, poor fit]"}
{"smiles": "COc1ccc2nc(C)cc(N/N=C/c3cccc(OC)c3O)c2c1", "Potency": "active: 44.7 µM"}
{"smiles": "Cc1ccc(NC(=O)CN(C)C(=O)CCOc2cccc(C)c2)cc1", "Potency": "inconclusive: 89.1 µM [inhibitor, single point]"}
{"smiles": "O=C(CCc1nc2ccccc2s1)NCc1ccccc1F", "Potency": "inconclusive: 8.91 µM [inhibitor, partial curve, poor fit]"}
{"smiles": "Cc1ccc(NC(=O)CSc2nnc3scc(-c4ccccc4)n23)cc1", "Potency": "inconclusive: 5.62 µM [inhibitor, single point]"}
{"smiles": "O=C(Nc1ccc(F)c(Cl)c1)c1cccnc1", "Potency": "inconclusive: 89.1 µM [inhibitor, single point]"}
{"smiles": "O=C(COC(=O)c1n[nH]c(=O)c2ccccc12)NCc1ccccc1", "Potency": "inconclusive: 3.55 µM [inhibitor, single point]"}
{"smiles": "COc1ccc(C(C(=O)NC2CCCCC2)N(CC2CCCO2)C(=O)C2COc3ccccc3O2)cc1OC", "note": "(stereo not drawn)", "Potency": "inconclusive: 28.2 µM [inhibitor, single point]"}
{"smiles": "O=C(Nc1ccc(S(=O)(=O)NCc2ccco2)cc1)c1cccc(F)c1", "Potency": "active: 56.2 µM"}
{"smiles": "Cc1cc(C)nc(SSc2nc(C)cc(C)n2)n1", "Potency": "active: 0.398 µM"}
{"smiles": "O=C(COC(=O)/C=C/c1ccccc1[N+](=O)[O-])NC(=O)NC1CCCC1", "Potency": "inconclusive: 89.1 µM [inhibitor, partial curve, poor fit]"}
{"smiles": "Cc1nc(NCc2ccccn2)c2c3c(sc2n1)CCCC3", "Potency": "inconclusive: 20 µM [inhibitor, partial curve, poor fit]"}
{"smiles": "OC(CNCCCCNCC(O)C(F)(F)F)C(F)(F)F", "note": "(stereo not drawn)", "Potency": "inconclusive: 50.1 µM [inhibitor, partial curve, poor fit]"}
{"smiles": "COc1ccc2c(C)nc(Nc3nc(-c4ccccc4)cc(=O)[nH]3)nc2c1", "Potency": "inconclusive: 50.1 µM [inhibitor, partial curve]"}
{"smiles": "CCOc1ccc(CN2CCc3nc(Nc4ccc(OC)cc4OC)ncc3C2)cc1", "Potency": "inconclusive: 35.5 µM [inhibitor, single point]"}
{"smiles": "N#Cc1nc(Cc2cccc3ccccc23)oc1N1CCN(c2ccccc2)CC1", "Potency": "active: 22.4 µM"}
{"smiles": "CCOc1ccc2nc(N(CCN(CC)CC)C(=O)c3cccc([N+](=O)[O-])c3)sc2c1", "Potency": "inconclusive: 15.8 µM [inhibitor, partial curve, poor fit]"}
{"smiles": "O=C(CN1C(=O)NC2(CCCCCC2)C1=O)c1ccc(Cl)s1", "Potency": "inconclusive: 79.4 µM [inhibitor, single point]"}
{"smiles": "CC(C)(C)c1ccc(C(=O)NC(=S)NCC2CCCO2)cc1", "note": "(stereo not drawn)", "Potency": "active: 39.8 µM"}
{"smiles": "Cc1ccc(-n2c(SCc3ccc([N+](=O)[O-])cc3)nc3ccccc3c2=O)cc1", "Potency": "inconclusive: 79.4 µM [inhibitor, single point]"}
{"smiles": "Cn1c(CN2CCOCC2)nnc1SCC(=O)Nc1cccc(C(F)(F)F)c1", "Potency": "inactive"}
{"smiles": "COC(=O)C1=C(NC(=O)c2ccccc2[N+](=O)[O-])CCS1", "Potency": "inconclusive: 50.1 µM [inhibitor, partial curve, poor fit]"}
{"smiles": "CCOC(=O)c1[nH]c2ccc(OC)cc2c1NS(=O)(=O)c1ccc(OC)cc1OC", "Potency": "inconclusive: 44.7 µM [inhibitor, partial curve, poor fit]"}
{"smiles": "CCC(=O)Nc1ccc(N2CCN(Cc3ccccc3F)CC2)cc1", "Potency": "inconclusive: 79.4 µM [inhibitor, single point]"}
{"smiles": "COc1cc2[nH]c(=O)c(C(=O)NCCCN3CCCCC3)c(O)c2cc1OC", "Potency": "inconclusive: 15.8 µM [inhibitor, single point]"}
{"smiles": "CCN(CC)CCCNC(=O)c1nn(C)c2c1CS(=O)(=O)c1ccccc1-2", "Potency": "active: 25.1 µM"}
{"smiles": "COc1ccc2c(c1)c1c(c(=O)n(CCc3ccccc3)c(=O)n1Cc1ccc(F)cc1)n2C", "Potency": "inactive"}
{"smiles": "CCN(CC)c1ccc2cc(C(N)=O)/c(=N\\NC(=O)c3ccncc3)oc2c1", "Potency": "inactive"}
{"smiles": "N#CCCn1cc(/C=N/NC(N)=S)c(-c2ccccc2)n1", "Potency": "inconclusive: 56.2 µM [inhibitor, single point]"}
{"smiles": "COc1cccc2sc3ccc(NCc4ccc5c(c4)OCO5)cc3c(=O)c12", "Potency": "inconclusive: 100 µM [inhibitor, single point]"}
{"smiles": "COc1cccc(NC(=O)c2ccc(NCCCN3CCC(C)CC3)c([N+](=O)[O-])c2)c1", "Potency": "inconclusive: 1.78 µM [inhibitor, full curve, poor fit]"}
{"smiles": "O=C1/C(=C/c2ccccn2)SC(=S)N1CCc1ccccc1", "Potency": "inconclusive: 3.55 µM [inhibitor, partial curve, poor fit]"}
{"smiles": "COc1ccc(OC)c(NC(=O)CSc2nnc(CNC(=O)c3cccs3)o2)c1", "Potency": "inactive"}
{"smiles": "CC1CCCC/C1=N/Nc1ccc([N+](=O)[O-])cc1[N+](=O)[O-]", "note": "(stereo not drawn)", "Potency": "active: 35.5 µM"}
{"smiles": "Cc1cccc(C)c1NC(=S)N(CCc1ccncc1)C(C)C", "Potency": "inconclusive: 79.4 µM [inhibitor, single point]"}
{"smiles": "CCOc1ccc(NC(=O)c2ccccc2NC(=O)c2cccnc2)cc1", "Potency": "inactive"}
{"smiles": "CCN(Cc1ccccc1)C(=O)CC1Oc2ccccc2NC1=O", "note": "(stereo not drawn)", "Potency": "inconclusive: 89.1 µM [inhibitor, single point]"}
{"smiles": "COC(=O)C1=C(C)N(Cc2ccccc2)C(=O)/C1=C\\c1ccco1", "Potency": "active: 28.2 µM"}
{"smiles": "O=C(Cc1ccccc1)Nc1nc(-c2cccs2)cs1", "Potency": "inconclusive: 3.98 µM [inhibitor, partial curve, poor fit]"}
{"smiles": "Cc1ccc(OCC(=O)Nc2cc(C)on2)c([N+](=O)[O-])n1", "Potency": "inconclusive: 1 µM [inhibitor, partial curve, poor fit]"}
{"smiles": "COc1ccccc1NC(=S)Nc1ccc2cn[nH]c2c1", "Potency": "inactive"}
{"smiles": "O=S(=O)(c1ccccc1)N(CC(O)COc1ccccc1)c1ccccc1", "note": "(stereo not drawn)", "Potency": "inactive"}
{"smiles": "COc1cccc(CNCc2cc(OC)cc(OC)c2)c1", "Potency": "inconclusive: 28.2 µM [inhibitor, full curve, poor fit]"}
{"smiles": "O=C(c1ccccn1)c1cc2ccccc2n1S(=O)(=O)c1ccccc1", "Potency": "inconclusive: 39.8 µM [inhibitor, single point]"}
{"smiles": "COc1cccc(N2CCN(C3C4CC5CC(C4)CC3C5)CC2)c1", "note": "(stereo not drawn)", "Potency": "active: 50.1 µM"}
{"smiles": "Cc1ccc(C(=O)CCC(=O)OCC(=O)Nc2c(C)nn(-c3ccccc3)c2C)cc1", "Potency": "inconclusive: 79.4 µM [inhibitor, partial curve, poor fit]"}
{"smiles": "OCCN(CCO)c1ccc2ccccc2c1", "Potency": "inconclusive: 3.16 µM [inhibitor, single point]"}
{"smiles": "O=C1C=C(NCc2ccc3c(c2)OCO3)CC(c2ccccc2)C1", "note": "(stereo not drawn)", "Potency": "inactive"}
{"smiles": "CCCc1[nH][nH]c(=O)c1C(c1ccc(Br)cc1)C(C#N)C#N", "note": "(stereo not drawn)", "activity, negative = inhibition": "inconclusive: -99.7% [inhibitor]"}
{"smiles": "CC(=O)c1csc(-c2cccc(-c3nc4ccc(Cl)cn4c3NC3CCCCC3)c2)c1", "activity, negative = inhibition": "inactive: 2.4% [at 2.33 µM]"}
{"smiles": "CC(C(=O)Nc1nnc(C2CC2)s1)N1C(=O)C2CC=CCC2C1=O", "note": "(stereo not drawn)", "Potency": "inconclusive: 2 µM [inhibitor, partial curve, poor fit]"}
{"smiles": "CC1=C(C)C(c2ccccc2)NC(=S)N1", "note": "(stereo not drawn)", "Potency": "inconclusive: 12.6 µM [inhibitor, single point]"}
{"smiles": "CCC1(C)Cc2ccccc2-c2nc3n(c(=O)c21)CC(C(=O)O)S3", "note": "(stereo not drawn)", "Potency": "inconclusive: 89.1 µM [inhibitor, partial curve, poor fit]"}
{"smiles": "Cc1nc2ccccc2c(-c2ccccc2)c1C(=O)c1ccccc1", "Potency": "inactive"}
{"smiles": "Cc1ccc(O)c(-c2cc(C(F)(F)C(F)F)[nH]n2)c1", "Potency": "inactive"}
{"smiles": "CCCCNC(=O)CCn1nc(-c2ccc(C)cc2)c2ccccc2c1=O", "Potency": "inactive"}
{"smiles": "CCOC(=O)N1CCc2c(sc(NCc3cc(OC)c(OC)cc3OC)c2C(=O)Nc2ccc(OCC)cc2)C1", "Potency": "active: 3.16 µM"}
{"smiles": "CS(=O)(=O)N(Cc1ccco1)CC(O)Cn1c2ccccc2c2ccccc21", "note": "(stereo not drawn)", "Potency": "active: 14.1 µM"}
{"smiles": "CC(O)CCCCn1c(=O)c2c(ncn2C)n(C)c1=O", "note": "(stereo not drawn)", "Potency": "inactive"}
{"smiles": "COc1ccc(Cc2nnc(N)s2)cc1OC", "Potency": "active: 7.94 µM"}
{"smiles": "Cc1cc2nc3c(nc2cc1C)C(O)=C3O", "Potency": "inactive"}
